Experimental data: paper PMC10668032
The other results are listed elsewhere or left out. At the low end of the ranking the order means little.

Molecular target: SIX1-Q177R homeodomain (UniProt Q15475)
Assay: universal protein binding microarray
Details: Universal all-10-mer PBM (8x60K, AMADID 030236), 300 nM GST-tagged protein, Alexa Fluor 488 anti-GST; buffer, salt, pH and temperature not stated; high values mean tight binding; most listed sequences are background and not binding sites; double strand, one strand shown

Sequence | binding signal [E-score]
CTGCCCAC | 0.0119
GATTTTGC | -0.138
GAACAGCA | -0.149
CGTACTAC | -0.0725
GAGTCCGA | -0.108
CACCAGGG | 0.284
CGGTGACA | 0.248
AGGTCCGG | -0.0748
TACGAGTA | -0.0874
AGCACATG | -0.23
AGTGTCCA | 0.348
CTAGAATC | -0.00104
CACGGTCA | 0.243
ACTCTGAG | -0.0232
ATTTGAAC | 0.0125
TGGGCCCA | -0.0815
AAGAATAC | -0.059
CGCCCACG | 0.113
ACCTTGTA | 0.203
CCGTACGA | -0.0857
GTACAAAA | 0.0208
GCGAGGCA | -0.0688
CTTCAAAA | -0.0349
ACTCTACG | 0.131
ATACAAAA | 0.00381

Sequence | binding signal [E-score]
TAAAAATA | -0.0578
AAGTGGAT | 0.023
AACCGAGA | -0.125
AATCCCAA | -0.185
GGAAACAA | -0.00328
ACCATTTA | 0.0524
AATATCTC | -0.171
ATTTTTCG | -0.0874
CACCACGG | 0.226
AAATCACA | -0.0284
GATTTTAA | -0.14
CGTCTCAC | 0.0654
ATAGCCTC | -0.0423
AAAAAAAC | -0.192
ACCTAATA | 0.0458
TTGCGAAA | -0.0519
AAAGTTCA | -0.185
CCAGTCGA | -0.0886
AAGTTACC | -0.114
TCTGCTCA | -0.0548
ATTGGCTC | -0.19
CGTCTTGA | -0.0735
GGATAACA | 0.204
ACCCTCGC | 0.0865
CATCATAG | -0.165

Sequence | binding signal [E-score]
CAGTACAG | -0.0112
ACGCTAGG | 0.0425
ATAGGCTA | -0.092
CGTCGGAG | 0.00628
CCCGCAAC | 0.123
AGTGCCAC | -0.0736
CTTATTTA | -0.193
CACGTATG | 0.149
GTCTGAAC | -0.0732
CCGCTGCA | -0.208
TCACAGGA | -0.0647
AGGACTTA | -0.29
TAAGCAAA | -0.249
TAACCGAA | -0.0221
CTCGCTGC | -0.141
AGTTAATA | 0.0894
AGATGCCA | -0.312
AAGAACTG | -0.169
ACAGAATC | -0.0446
ACGTCATG | -0.119
GGATCGAA | 0.0613
AATCGACT | -0.0748
AATAGTTG | -0.0781
CGTAGAAA | -0.106
GAGTTAGA | -0.068

Sequence | binding signal [E-score]
CTTTTGCA | -0.0694
AGGCACTG | -0.0499
AACTGCCG | -0.183
CCCAACAA | 0.199
CGAAATCA | -0.254
CGGGCACC | 0.0787
CCGGGTTA | 0.2
GTTCTGAA | 0.0775
AGCTGACA | 0.0626
CACGATGG | 0.137
CAGAATAA | -0.0872
ACATTTAA | -0.155
ATAGATAT | -0.143
GTGTTCAA | 0.386
ACTTACCT | -0.0763
CAGTAACC | -0.0463
AAATCATG | -0.00357
AATCTACC | -0.0508
GCGGCCGC | -0.208
ATGCTCTA | -0.25
CAATTGGA | -0.147
GGAACGAC | -0.0716
ACAAAGCC | -0.101
ACCCGCGC | 0.268
GGCTAATA | -0.102

Sequence | binding signal [E-score]
CGTTAAAG | -0.0264
CGAGGCCC | -0.115
GTTGGCTA | -0.0711
CACTATGG | 0.147
CGTCGTGC | -0.0538
AATATGTA | -0.0929
CTAGCGGC | -0.184
GCTCGTAC | 0.0533
AAAGAGGA | 0.0464
GCGTGGTA | 0.00169
ACACCTGT | 0.46
TCAGCAGA | -0.17
CCATAGAG | -0.119
AAATTCGA | -0.0878
CATCACGA | -0.163
AGTGGTTG | -0.0551
CAACCCCA | 0.173
AATCCTCA | -0.143
GAGTACCC | 0.173
GCCTAAGA | -0.261
AAATATGC | -0.165
ATTTGAGA | -0.0993
GCTCTAAA | -0.261
CCTTTCCC | -0.0576
AGCAGCTA | -0.0665

Sequence | binding signal [E-score]
AGATGGGC | -0.201
ACTGGGTC | -0.0772
CGGTGTTA | 0.485
GCGCCGTA | -0.178
ACGACTAA | -0.14
AACCCGGA | 0.201
GCGTCGCC | 0.015
TACGGCGA | -0.0361
CAGCACCG | 0.242
AAATTACT | -0.165
CGTATCCA | 0.159
CAGCTACC | -0.105
ATGAGGAG | -0.0501
AATGTCTA | -0.147
CCAGCTTA | 0.0911
CCAGACTA | -0.0621
ACCTAGAG | 0.175
CGACATGC | 0.0968
GACTAACC | -0.16
ACAACGAC | 0.0274
AGCCTCTG | -0.199
ACGCATAG | -0.036
ACGAGACG | -0.0936
CGACGGCC | -0.139
AGAAGGCC | -0.35

Sequence | binding signal [E-score]
CTACCCGC | 0.131
ATTACTGC | -0.0979
AGCAAGCA | -0.261
GTGCCGCA | -0.0225
CAGAACGA | 0.133
ACGAGTCT | 0.102
AAACATGT | -0.188
CCTCTGGA | -0.0762
CTGAGCCA | -0.125
ACCCAGAC | 0.14
TCGAAAGA | -0.222
AAAAGCGA | -0.0478
AAATGCTA | 0.0787
ACCGGGTG | 0.322
ACCTTGAC | 0.024
AGAGTCTA | -0.261
CATCGGGC | -0.033
CGGAGTTC | 0.0471
ATTATGCA | -0.0722
CCTACTAC | 0.13
ACCAATAT | 0.0298
ACTCAACA | 0.172
AGCTACAC | 0.435
AGGACTGG | -0.00034
AGCAGGCA | -0.0461

Sequence | binding signal [E-score]
AAGCTTCC | -0.314
GAACCTAC | -0.0129
AAAGGCGG | 0.0658
ACAACGCC | 0.0221
AGAGCATC | -0.263
CTCACCCC | 0.0749
AGCCATGG | -0.0321
CATGGAGC | -0.256
CAGACAGG | -0.037
GCAGTATA | -0.0555
ATTTCTTC | -0.158
CCCCTCAC | 0.203
ACGGAGAA | -0.0423
GAGAAACC | 0.0917
GCCTCCAC | -0.204
AGCTGTCC | -0.282
ATCCCACA | 0.192
CACGGTAG | 0.131
ACAGAGGG | 0.0759
AGCACAAT | -0.0438
ACGGTCCT | -0.129
ATGAGTCA | -0.096
AGTTTGAT | -0.138
TACTTACA | 0.102
AGGACGCG | 0.082

Sequence | binding signal [E-score]
GCTGCGGA | -0.0776
CAACCTAC | 0.0683
CCACGGTA | -0.12
TCGGTAAA | 0.111
CAGTGTCC | 0.374
ATAGGTTG | -0.104
GTCGCCCA | -0.193
ACTCGGCG | 0.118
GAACCCCC | 0.244
AGCGACCG | -0.259
AGGGACTG | -0.173
GATGGCCA | -0.146
TCGGACGA | -0.214
CAGACCCG | -0.0489
GCCTGGTA | -0.00962
TATTCGGA | -0.0564
CAGCTGAC | -0.0343
AGAACGCG | -0.0255
CACAGTGA | -0.0812
